Results from publication PMC9911399, “Two distinct binding modes provide the RNA-binding protein RbFox with extraordinary sequence specificity”.
Numbering of substitutions follows the chain as printed; changes in the protein carry UniProt numbers. This is one part of the list.

T1: RBFOX1 RRM (Homo sapiens, UniProt Q9NWB1 109-208)
T1 sequence: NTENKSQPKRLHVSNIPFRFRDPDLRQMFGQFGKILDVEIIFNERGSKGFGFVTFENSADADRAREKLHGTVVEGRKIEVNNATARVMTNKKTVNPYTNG

B1: GGACUAA (DNA:RNA)
RNA: GGGAGACCGGAAUUCAGAUUGUCCGGACUAAUUAAAUCCCGUCGUAGCCACCA
DNA 1: CAATCTGAATTCCGGTCTCCC
DNA 2: TGGTGGCTACGACGGGATT
B2: CCAUGCC (DNA:RNA)
RNA: B1 RNA with G25C, G26C, C28U, U29G, A30C, A31C
DNA 1: CAATCTGAATTCCGGTCTCCC
DNA 2: TGGTGGCTACGACGGGATT
B3: GUAUGUG (DNA:RNA)
RNA: B1 RNA with G26U, C28U, U29G, A30U, A31G
DNA 1: CAATCTGAATTCCGGTCTCCC
DNA 2: TGGTGGCTACGACGGGATT
B4: ACUCCCG (DNA:RNA)
RNA: B1 RNA with G25A, G26C, A27U, U29C, A30C, A31G
DNA 1: CAATCTGAATTCCGGTCTCCC
DNA 2: TGGTGGCTACGACGGGATT
B5: CUUCAGC (DNA:RNA)
RNA: B1 RNA with G25C, G26U, A27U, U29A, A30G, A31C
DNA 1: CAATCTGAATTCCGGTCTCCC
DNA 2: TGGTGGCTACGACGGGATT
B6: GUCUGAU (DNA:RNA)
RNA: B1 RNA with G26U, A27C, C28U, U29G, A31U
DNA 1: CAATCTGAATTCCGGTCTCCC
DNA 2: TGGTGGCTACGACGGGATT
B7: AACAAGA (DNA:RNA)
RNA: B1 RNA with G25A, G26A, A27C, C28A, U29A, A30G
DNA 1: CAATCTGAATTCCGGTCTCCC
DNA 2: TGGTGGCTACGACGGGATT
B8: UGGAGUG (DNA:RNA)
RNA: B1 RNA with G25U, A27G, C28A, U29G, A30U, A31G
DNA 1: CAATCTGAATTCCGGTCTCCC
DNA 2: TGGTGGCTACGACGGGATT
B9: GUAAUGA (DNA:RNA)
RNA: B1 RNA with G26U, C28A, A30G
DNA 1: CAATCTGAATTCCGGTCTCCC
DNA 2: TGGTGGCTACGACGGGATT
B10: CGUGGGC (DNA:RNA)
RNA: B1 RNA with G25C, A27U, C28G, U29G, A30G, A31C
DNA 1: CAATCTGAATTCCGGTCTCCC
DNA 2: TGGTGGCTACGACGGGATT
B11: AAAGAGG (DNA:RNA)
RNA: B1 RNA with G25A, G26A, C28G, U29A, A30G, A31G
DNA 1: CAATCTGAATTCCGGTCTCCC
DNA 2: TGGTGGCTACGACGGGATT
B12: UUCACAA (DNA:RNA)
RNA: B1 RNA with G25U, G26U, A27C, C28A, U29C
DNA 1: CAATCTGAATTCCGGTCTCCC
DNA 2: TGGTGGCTACGACGGGATT
B13: UGUAGCG (DNA:RNA)
RNA: B1 RNA with G25U, A27U, C28A, U29G, A30C, A31G
DNA 1: CAATCTGAATTCCGGTCTCCC
DNA 2: TGGTGGCTACGACGGGATT
B14: CGUCAGC (DNA:RNA)
RNA: B1 RNA with G25C, A27U, U29A, A30G, A31C
DNA 1: CAATCTGAATTCCGGTCTCCC
DNA 2: TGGTGGCTACGACGGGATT
B15: AGACUUG (DNA:RNA)
RNA: B1 RNA with G25A, A30U, A31G
DNA 1: CAATCTGAATTCCGGTCTCCC
DNA 2: TGGTGGCTACGACGGGATT
B16: UAAGUAA (DNA:RNA)
RNA: B1 RNA with G25U, G26A, C28G
DNA 1: CAATCTGAATTCCGGTCTCCC
DNA 2: TGGTGGCTACGACGGGATT
B17: AGGGUCU (DNA:RNA)
RNA: B1 RNA with G25A, A27G, C28G, A30C, A31U
DNA 1: CAATCTGAATTCCGGTCTCCC
DNA 2: TGGTGGCTACGACGGGATT
B18: CGGGGCG (DNA:RNA)
RNA: B1 RNA with G25C, A27G, C28G, U29G, A30C, A31G
DNA 1: CAATCTGAATTCCGGTCTCCC
DNA 2: TGGTGGCTACGACGGGATT
B19: GUCCGGG (DNA:RNA)
RNA: B1 RNA with G26U, A27C, U29G, A30G, A31G
DNA 1: CAATCTGAATTCCGGTCTCCC
DNA 2: TGGTGGCTACGACGGGATT
B20: GGAAGCG (DNA:RNA)
RNA: B1 RNA with C28A, U29G, A30C, A31G
DNA 1: CAATCTGAATTCCGGTCTCCC
DNA 2: TGGTGGCTACGACGGGATT

molecular target: T1, RBFOX1 RRM; assay: EMSA; HiTS-Eq, 1 nM pool, 10 min; buffer printed only for the single-RNA assays: 10 mM Tris pH 7.5, 150 mM NaCl, 3.4 mM EDTA, 0.001% NP-40, 30 C; settings: tags: His6 N-terminal (pET28a); label: 5' 32P
Procedure, shortened: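 Relative association constants, normalised to the cognate motif, were derived by comparing read counts of each RNA species with those of the control reaction. The RNA sequenced was the free fraction, separated by 8% native PAGE after a 10 min equilibration in 50 µL of 1 nM 5′-radiolabelled RNA (7 randomized nucleotides) with increasing concentrations of purified wild-type or mutant RbFox RRM.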

**Q.** How did the binding signal turn out when B1 was run?
**A.** Its binding signal is 0.00992 KA relative to UGCAUGU.

**Q.** With B2 as the binder, how does the binding signal read?
**A.** Its binding signal is 0.00772 KA relative to UGCAUGU.

**Q.** For B3, which binding signal is on record?
**A.** The binding signal was 0.0175 KA relative to UGCAUGU.

**Q.** How did the binding signal turn out when B4 was run?
**A.** The binding signal was 0.00436 KA relative to UGCAUGU.

**Q.** With B5 as the binder, how does the binding signal read?
**A.** The binding signal was 0.00679 KA relative to UGCAUGU.

**Q.** Which binding signal does the source give for B6 here?
**A.** The binding signal was 0.0241 KA relative to UGCAUGU.

**Q.** B7 was tested. Which binding signal did it give?
**A.** The binding signal was 0.00213 KA relative to UGCAUGU.

**Q.** How did the binding signal turn out when B8 was run?
**A.** The binding signal was 0.0323 KA relative to UGCAUGU.

**Q.** With B9 as the binder, how does the binding signal read?
**A.** Its binding signal is 0.0136 KA relative to UGCAUGU.

**Q.** With B10 as the binder, how does the binding signal read?
**A.** Its binding signal is 0.00926 KA relative to UGCAUGU.

**Q.** Which binding signal does the source give for B11 here?
**A.** Its binding signal is 0.00665 KA relative to UGCAUGU.

**Q.** For B12, which binding signal is on record?
**A.** Its binding signal is 0.00317 KA relative to UGCAUGU.

**Q.** How did the binding signal turn out when B13 was run?
**A.** The binding signal was 0.0149 KA relative to UGCAUGU.

**Q.** With B14 as the binder, how does the binding signal read?
**A.** The binding signal was 0.0106 KA relative to UGCAUGU.

**Q.** B15 was tested. Which binding signal did it give?
**A.** Its binding signal is 0.0166 KA relative to UGCAUGU.

**Q.** B16 was tested. Which binding signal did it give?
**A.** Its binding signal is 0.0096 KA relative to UGCAUGU.

**Q.** With B17 as the binder, how does the binding signal read?
**A.** The binding signal was 0.0254 KA relative to UGCAUGU.

**Q.** For B18, which binding signal is on record?
**A.** Its binding signal is 0.0306 KA relative to UGCAUGU.

**Q.** B19 was tested. Which binding signal did it give?
**A.** Its binding signal is 0.00708 KA relative to UGCAUGU.

**Q.** B20 was tested. Which binding signal did it give?
**A.** The binding signal was 0.0177 KA relative to UGCAUGU.
